# Measured values taken from the supplement of paper PMC12632987.
# The full ranking holds about 1,800 sequences; the median of “median log2 fold change of GCK-ALFA target abundance (FLAG IP / Myc IP barcode read proportion)” is about 0.14, and the lowest 2% start at about -0.84. This is one part of the list.
# B1: traf2_out_18_3_1901 (protein)
# chain: KEEERKRLSEEIDEIVDEAEAYARRVLDRLAAERPEVAAELDRLRAVLEAGGGAFGVLEELAELARRLGLEELAEEIEEFLREKRRRFQELVDRYEELIK
# B2: traf2_out_17_162_1534 (protein)
# chain: SETEEKLKKLKEKLKEIEKRLEELEKKSKELEKKSKEELTDLLVEASELRREALKLAEELKKLAKETGSEEAKKLAEKAEEVAERLQRIANEIYKELEKK
# B3: traf2_out_11_169_863 (protein)
# chain: EQKKFNRELIDFALEVNDEAKEKLKKFALELAKEEGLDVEEVKKIFEENKNKSLSAIASALIKYFESKGKKEAAEKILEKYDELKEEINKKVSAKMKELK
# B4: traf2_out_20_3_2056 (protein)
# chain: SELEEEIEKLEKELEAKLKELEKLLPPEEAKELKEAWKKVKEAKKEGLEEYLIAVSELRRLLLELSERARARGDEETAKLLEEAAELAGRIAHLIYLKIE
# B5: traf2_out_16_104_1422 (protein)
# chain: SEEKEKEFEEIIERLEEIAERAQRIANELMKLYEKASPEKRTALSDALVKASELRREALEAAQQAKEDKENGGDLEERRKRLEELEKRLEELEKELEELK
# B6: traf2_out_5_63_2359 (protein)
# chain: SEREELTALARRADKLVRELLAAAKAGDEERVEALLEEAVADPELARLVLGILKGEAKYYELLGDKPEEAKIAKELAERLEARMAARAAEAAAAAAAAAA
# B7: traf2_out_17_178_1690 (protein)
# chain: SKEEYRKKISEATDELIDLTVATGTALLAAARAAGTVSPEELAALEAARRAGSNRTFRALAERIVPKLPSAAAAAARLAAFDAEAAALNKEIAEAYEKYE
# B8: traf2_out_17_162_1561 (protein)
# chain: SPLEEEWEELLRRLEELERRVEELEKRLENLENLSPEEIRDLLVEASEVKREALELAERARELRPEIGEEEAEELIERAEEIAERAQRIANKLYEALLKK
# B9: traf2_out_20_38_2033 (protein)
# chain: SEEEEEKRRLEEAIEVANEAYDKYSARVAAWKAAGKTVEEIAEEAKEEVRRLLTEAGLEEEAEILIEDIDRALSSPEAERLIVRILARAEALVYQKKVNE
# B10: traf2_out_19_16_1986 (protein)
# chain: AEEEAQKLIEEMKAYMDKALDLAKESVANLDKLSREELSDKLVEISELMRKAQEALQKALELLKDDPERRAELQAEFDAKRDEINRLMTIIVNKLEELLK
# B11: traf2_out_16_104_1399 (protein)
# chain: SAAKQARFDAIIAELEAIAEELQRIANEIYELYLKADPETKVKLSDLLVEASEARRFALEAAEQARRDRETGGDLAEAEARLAEARKRAERVRKEAEALK
# B12: traf2_out_12_148_939 (protein)
# chain: SNKEKAEELRELLRERAARLRAAAQALSPEVQALVAAETDRLLDAADIVADFSLEDLLSAIRTRLEAFAHLLSQHPEAAPLVAAVRAFAAEVEEKAKELA
# B13: traf2_out_19_16_1980 (protein)
# chain: KEEELKKLEKELEEIKKRVEELEKYFEENKDTLTREELSDLLVEVSELKRRALEILQKLKELKDVDPERVEKLEKEAEEVIERAQRLANELVERYEELLK
# B14: traf2_out_14_166_1277 (protein)
# chain: MTPEEIERIRKIVDELEPLTDAAVARARAILDKVRDKLSPEDLARVEALLALAARNIGSSAINALREIAKIYKKAGLDEAAAAMQALADELEEKLKKLNK
# B15: traf2_out_5_189_2319 (protein)
# chain: SSREEEEERDRELARRLNKEAIELLEELKKRNASHEEIKEEFIKRAKTLSIEEARLYTGIMYSILMGEAIVNNDEELKKAAEEMHKEILAWIREREKELA
# B16: traf2_out_1_27_1025 (protein)
# chain: SDEELTALIKETDRKIANSTPEEAKEIVKKAIKEAYKLGKSDAILLARTLVASQLDPERAKIIKEAVLEALKELGFSQETLDRVAKVMDSSIERIKKVLA
# B17: traf2_out_15_48_1368 (protein)
# chain: DAAAYRAAMNEAADAILATKDKVREKVKELAAKASPEVKAKLDAVVALIDAGAGSQDIIAALKEAAKKASPEEKKKLEALAKELEAARREASKIAAEMEK
# B18: traf2_out_13_95_1114 (protein)
# chain: SKELAEKIMEIADKALDKANELLDKLLAEIKASGKLPPEVEAALNAAKKSTIRTAIHTLQELAKEYPEFKELFEATIEELEKIRREAGKEVAKLIKEEKE
# B19: traf2_out_6_3_2524 (protein)
# chain: SEESLRADARKILEGMGITTAEQLRTLVTAEVNAVRQLVSRPDTDRADLAGARSVLALSRAIVDVAAETLPDLTPEQVAALRALIAAAEELIAAREAELA
# Target: T1, TRAF2, Q12933
# T1 chain: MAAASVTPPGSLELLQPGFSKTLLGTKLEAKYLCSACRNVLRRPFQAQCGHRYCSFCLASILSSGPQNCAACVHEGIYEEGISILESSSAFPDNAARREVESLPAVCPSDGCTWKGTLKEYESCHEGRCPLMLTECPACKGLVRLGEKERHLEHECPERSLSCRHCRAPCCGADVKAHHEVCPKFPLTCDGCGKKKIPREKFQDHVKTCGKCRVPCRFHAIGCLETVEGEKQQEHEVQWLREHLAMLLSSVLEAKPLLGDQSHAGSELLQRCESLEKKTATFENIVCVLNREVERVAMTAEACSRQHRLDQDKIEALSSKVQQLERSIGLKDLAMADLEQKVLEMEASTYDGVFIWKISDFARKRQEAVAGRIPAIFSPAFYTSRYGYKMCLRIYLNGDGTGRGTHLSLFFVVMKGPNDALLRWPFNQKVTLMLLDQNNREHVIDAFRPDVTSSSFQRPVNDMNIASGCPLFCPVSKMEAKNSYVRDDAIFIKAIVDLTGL
# Assay: median log2 fold change of GCK-ALFA target abundance (FLAG IP / Myc IP barcode read proportion) (log2 ratio); each designed protein is fused to an ALFA-tag nanobody in HEK293 cells to bring the named protein to FLAG-tagged glucokinase (GCK); Myc marks an untargeted standard; higher = target protein stabilised (more abundant)
# Details: target protein: 3xFLAG-MCP-GCK-ALFA reporter; HEK293 landing pad (RPLP)
# Summary of the method: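 HEK293 landing-pad cells received a recombined binder library fused to the ALFA nanobody and were induced with 2 μg mL^−1 doxycycline, then transfected with a plasmid encoding a FLAG-tagged target and a Myc-tagged standard. Lysates were collected after 48 h for anti-FLAG and anti-Myc immunoprecipitation, and the circular RNA barcodes were reverse transcribed, amplified and sequenced. Target abundance for each binder is the median log2 ratio of FLAG to Myc barcode read proportions. Barcodes had to reach a proportion of at least 10^−7 in both replicates, each binder needed at least 3 barcodes per replicate, a pseudocount of 10^−6 was applied, and the two replicates were pooled.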
row,Binder,median log2 fold change
1,B1,0.308
2,B2,0.0675
3,B3,-0.614
4,B4,0.426
5,B5,0.0771
6,B6,-0.398
7,B7,0.173
8,B8,0.205
9,B9,-0.971
10,B10,0.445
11,B11,-0.0653
12,B12,0.268
13,B13,0.116
14,B14,0.354
15,B15,0.331
16,B16,0.141
17,B17,0.483
18,B18,0.00211
19,B19,-0.125
